Some of the results follow.
Key:
[1] = test system: HSkMC (human skeletal muscle cells); assay: cytotoxicity call (relative viability < 0.9); conditions: 10 µM
[2] = test system: HepG2; assay: cytotoxicity call (relative viability < 0.9); conditions: 10 µM
[3] = test system: S. aureus RN4220; assay: growth inhibition call (relative growth <= 0.2); conditions: 50 µM

Compound	cytotoxicity call [1]	cytotoxicity call [2]	growth inhibition call [3]
Cc1noc(C)c1S(=O)(=O)Nc1ccc2c(c1)C(=O)N([C@H](C)CO)C[C@H](C)[C@H](CN(C)Cc1ccccc1)O2	inactive	inactive	inactive
C[C@@H]1CN([C@@H](C)CO)C(=O)Cc2cc(NS(=O)(=O)c3ccc(F)cc3)ccc2O[C@H]1CN(C)S(=O)(=O)c1cn(C)cn1	inactive	inactive	inactive
CC(C)c1cccc(C(C)C)c1NC(=O)Cc1cccs1	inactive	inactive	inactive
COc1ccc(NC(=O)Nc2ccc3c(c2)C(=O)N([C@@H](C)CO)C[C@H](C)[C@H](CN(C)C(=O)Nc2ccccc2)OCCCC[C@@H](C)O3)cc1	inactive	inactive	inactive
Cc1ccc(S(=O)(=O)N(C)C[C@H]2Oc3ccc(NS(C)(=O)=O)cc3CC(=O)N([C@H](C)CO)C[C@H]2C)cc1	inactive	inactive	inactive
Cc1nn(C[C@@H](O)Cn2cnc3c2c(=O)n(C)c(=O)n3C)c(C)c1Br	inactive	inactive	inactive
CC1=C(C#N)C(=O)NC(=O)C1=NNc1ccc(S(N)(=O)=O)cc1	inactive	inactive	inactive
COc1ccc2c3c([nH]c2c1)[C@H](CO)N(C[C@]13CCN(CC1)Cc1ccccc1)S(=O)(=O)c1cn(cn1)C	inactive	inactive	inactive
COc1ccc(NC(=O)Nc2ccc3c(c2)[C@@H]2C[C@H](CC(=O)NCc4ccccn4)O[C@@H](CO)[C@@H]2O3)cc1	inactive	inactive	inactive
Cc1ccc(S(=O)(=O)Nc2ccc3c(c2)C(=O)N([C@@H](C)CO)C[C@H](C)[C@H](CN(C)C(=O)Nc2ccc(C(F)(F)F)cc2)O3)cc1	inactive	inactive	inactive
O=C(C[C@@H]1CC[C@@H]2[C@H](COC[C@H](O)CN2S(=O)(=O)c2ccc(Cl)cc2)O1)N[C@@H]1CCN(Cc2ccccc2)C1	inactive	active	inactive
COC[C@H]1CN(C)N=C(C2CC2)O1	inactive	inactive	inactive
COc1cc2c(cc1OC)CN(CCc1ccc(NC(=O)c3cccc4c(=O)c5cccc(OC)c5[nH]c34)cc1)CC2	inactive	inactive	inactive
COc1ccc(C(=O)Nc2ccc3c(c2)C(=O)N(C)[C@@H]2CC[C@H](CC(=O)NCC4CC4)O[C@H]2CO3)cc1	inactive	active	inactive
O=C(CN1CCOCC1)N[C@@H]1CC[C@H](CCNS(=O)(=O)c2ccccc2F)O[C@H]1CO	inactive	inactive	inactive
CCCN(C)C[C@H]1OCCCC[C@H](C)Oc2ccc(NC(=O)CCC(F)(F)F)cc2C(=O)N([C@H](C)CO)C[C@@H]1C	inactive	inactive	inactive
Cc1ccc(S(=O)(=O)N(C)C[C@H]2Oc3ccc(NC(=O)Cn4cnnn4)cc3C(=O)N([C@H](C)CO)C[C@@H]2C)cc1	inactive	inactive	inactive
CCCC#Cc1ccc2c(c1)O[C@H](CN(C)C(=O)c1cnccn1)[C@H](C)CN([C@H](C)CO)S2(=O)=O	inactive	inactive	inactive
C[C@@H]1CN([C@H](C)CO)C(=O)c2cccc(NC(=O)Nc3ccccc3)c2O[C@@H]1CN(C)S(=O)(=O)c1cn(C)cn1	inactive	inactive	inactive
Cc1ccc(S(=O)(=O)N(C)C[C@H]2Oc3ccc(NC(=O)Cn4cnnn4)cc3C(=O)N([C@H](C)CO)C[C@H]2C)cc1	inactive	inactive	inactive
Cc1c(-c2ccnn2C)cc(C(=O)NCc2ccc(S(C)(=O)=O)cn2)c(=O)n1-c1cccc(C(F)(F)F)c1	inactive	inactive	inactive
CC(C)NC(=O)N(C)C[C@H]1Oc2c(NS(=O)(=O)c3ccc(Cl)cc3)cccc2C(=O)N([C@H](C)CO)C[C@H]1C	inactive	inactive	inactive
C[C@H]1CN([C@@H](C)CO)C(=O)c2cc(NS(=O)(=O)c3cn(C)cn3)ccc2O[C@H]1CN(C)CC1CCCCC1	inactive	inactive	inactive
CC(C)NC(=O)N(C)C[C@H]1Oc2ccc(NS(=O)(=O)c3ccccc3)cc2C(=O)N([C@@H](C)CO)C[C@@H]1C	inactive	inactive	inactive
C[C@@H]1CN([C@@H](C)CO)C(=O)c2cc(NS(=O)(=O)c3cn(C)cn3)ccc2O[C@@H]1CN(C)C(=O)NC1CCCCC1	inactive	inactive	inactive
CC(=O)OC1CC23CC24CCC(OC2OCC(O)C(O)C2O)C(C)(C)C4CCC3C2(C)CC3OC4(CC(C)C3C12C)OC(O)C1(C)OC41 (stereo unspecified)	inactive	inactive	inactive
C[C@@H]1CN([C@H](C)CO)C(=O)Cc2cc(NC(=O)CCCCCC(=O)Nc3ccccc3N)ccc2O[C@@H]1CN(C)S(C)(=O)=O	inactive	inactive	inactive
